Laboratory results taken from article PMC12040169 (PLOS Biology, 2025).
This is one part of the list.

System: T1, C. trachomatis L2/434/Bu expressing GFP (CTL2-GFP)
T1 construct: L2/434/Bu GFP intracellular growth in HeLa cells
Parameters: species or system HeLa; C. trachomatis total inclusion area by high-content imaging, normalised to DMSO
Settings: total inclusion area; 28.5 h, 10 µM; inhibitor
Summary of the method: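 Bulk GFP and resorufin signals were read first. Wells were then fixed, stained with Hoechst and imaged to detect GFP inclusions and host nuclei. MICs followed the previously described calculation.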

| Structure (SMILES) | % of control remaining |
| --- | --- |
| O=C1NCCCC12CCN(Cc1cccs1)CC2 [CBK285346] | 114.228 |
| COc1ccc(Cc2n[nH]c(=O)n2-c2ccccc2)cc1 [CBK000112] | 145.175 |
| O=C(NCCO)c1cccc(-c2cncc(N3CCN(Cc4ccccn4)CC3)n2)c1 [CBK065784] | 107.381 |
| COc1cc(F)cc(OC2CCNCC2)c1NC(=O)C1=CC(=O)CC(C)(C)O1 [CBK050352T] | 96.6274 |
| CC(C)(C)C1CCC(OCC(O)CN2CCN(CCO)CC2)CC1 (stereo not shown) [CBK278263C] | 83.8329 |
| CCN1CC2(CCN(Cc3c(F)cccc3F)CC2)c2ccccc21 [CBK136986] | 96.035 |
| CCN1CC2(CCN(Cc3cc(OC)c(OC)c(OC)c3)CC2)c2ccccc21 [CBK131477] | 61.837 |
| CC1CN(CCC(=O)O)Cc2cc(Cl)ccc2O1 (stereo not shown) [CBK286899] | 58.9742 |
| O=C1CNC(=O)C2(C/C=C/C[C@H]3COCC[C@H]3N1)CCN(C(=O)c1ccc(=O)[nH]n1)CC2 [CBK292161] | 102.222 |
| CC(=O)N1CCN(c2ncnc3c2nnn3-c2ccccc2)CC1 [CBK287753] | 105.995 |
| COc1ccc(CCNC(=O)Cn2ccc(C3CCCNC3)n2)cc1 (stereo not shown) [CBK304444] | 94.5472 |
| COc1ccc(CCN2C(=O)CC(Nc3ccc(N4CCOCC4)cc3)C2=O)cc1OC (stereo not shown) [CBK266322] | 143.421 |
| CCCc1ccc(S(=O)(=O)Nc2ccccc2C(=O)O)cc1 [CBK042366] | 105.964 |
| O=C(O)CSc1ncnc2ccccc12 [CBK262069] | 98.1722 |
| c1ccc2c(c1)nc1n2CN(Cc2ccc3c(c2)OCO3)CN1 [CBK268087] | 81.3068 |
| O=C(NCCCc1ccccn1)c1ccnc2ccc(Cl)cc12 [CBK282618] | 104.251 |
| Nc1ccccc1NC(=O)NC(=O)c1ccccc1 [CBK022767] | 63.093 |
| OCc1nc2ccccc2n1CCCCOc1ccccc1Cl [CBK270117] | 67.4141 |
| Cc1ccc(S(=O)(=O)Nc2c(C(=O)O)sc3ncccc23)cc1[N+](=O)[O-] [CBK049983] | 103.663 |
| O=C(NCc1nc2ccccc2[nH]1)c1ccc2[nH]ccc2c1 [CBK149079] | 88.8498 |

| Structure (SMILES) | % of control remaining |
| --- | --- |
| O=C(O)COc1ccc(N2C(=O)c3ccc(-c4nc5ccccc5c(=O)o4)cc3C2=O)cc1 [CBK265659] | 92.855 |
| CCOC(=O)Cn1nc(C)n2c(cc3sc(C)cc32)c1=O [CBK284096] | 80.4859 |
| C=CCn1c2ccccc2c2nnc(SCC(=O)N3c4ccccc4Sc4ccccc43)nc21 [CBK263237] | 52.8976 |
| O=C(c1cccnc1)N1C[C@@H]2OCC(=O)N(Cc3ccc(F)cc3)[C@@H]2C1 [CBK289691] | 123.969 |
| O=C(CN1C(=O)c2ccccc2C1=O)Nc1sc2c(c1C(=O)NCC1CCCO1)CCC2 (stereo not shown) [CBK265583] | 91.6338 |
| O=C(O)C1CCCN(C(=O)NCC2COc3ccccc3O2)C1 (stereo not shown) [CBK161342] | 93.7078 |
| O=C(Cc1ccc(F)cc1)N1CCC(O)(c2ccccn2)CC1 [CBK283588] | 88.5198 |
| CCN(CCO)C(=O)C(C)Oc1cc(C)ccc1Cl (stereo not shown) [CBK306019] | 13.9106 |
| CC(CN(C)C(=O)CC1CCN(C(=O)CC2CCCCC2)CC1)c1ccccc1 (stereo not shown) [CBK286268] | 109.645 |
| Cn1nccc1-c1cc(C(=O)NC2(C)CCC2)c2ccccc2n1 [CBK281605] | 118.051 |
| COc1ccc(C(=O)Nc2nnc(-c3ccccc3OC)o2)cc1OC [CBK287589] | 93.7638 |
| COc1ccc([C@@]23CCC(CC(=O)O)C[C@@H]2N(C)CC3)cc1OC (stereo partly shown) [CBK045765A] | 89.9198 |
| COc1ccc(-c2cnc(N)c(NCc3cccnc3)n2)c(OC)c1OC [CBK063540] | 125.694 |
| O=S(=O)(c1ccc(Br)cc1)N1CCCCC1CO (stereo not shown) [CBK051127] | 79.2803 |
| O=C(NC[C@H]1O[C@@H](CC(=O)N2CCCC2)[C@H](O)[C@@H]1O)c1cccc(F)c1 [CBK288908] | 109.022 |
| O=S(=O)(NCc1nc2ccccc2[nH]1)c1ccccc1 [CBK269460] | 102.308 |
| Cc1ccc(C(=O)O)cc1NC(=S)NC1CC1 [CBK288397] | 82.8899 |
| C=CCNC(=O)C[C@@H]1CCN(C(=O)c2ccnc(Cl)c2)C[C@@H]1CC [CBK289136] | 74.4545 |
| Cc1nn(C)c(C)c1NC(=O)c1ccc(S(=O)(=O)N(C)C)cc1 [CBK266059] | 95.8437 |
| C/C(=N/OCC(=O)Nc1oc(-c2ccccc2)c(-c2ccccc2)c1C#N)c1cccs1 [CBK262932] | 80.2675 |
